# Data reported in PubChem BioAssay AID1345083 (National Center for Advancing Translational Sciences (NCATS), 2018).
# The whole screen tested about 94,000 compounds, of which about 6,200 (6.6%) were called active. The shares of active, inactive and inconclusive entries below differ from those in the screen. Calls come from the whole dose curve; as a rule, active = well fitted inhibition curve with a large enough effect; inconclusive = small, poorly fitted or top-dose-only effect; inactive = flat fitted curve, though single readings scatter. Where the call is inconclusive, the potency comes from a doubtful curve fit.
# Test: Cytotoxic Profiling in HEK 293 Cell Line of Diverse Libraries Using Quantitative High-Throughput Screening; note: nearly all actives have a fitted effect of over 60% in size
# Details: HEK 293 viability, ATP luminescence (CellTiter-Glo), 48-72 h; activity change, negative = cytotoxicity: at 115 µM (top of the series) unless noted; series mostly up to 115 µM
# In short: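 Luminescence from cellular ATP, measured with CellTiter-Glo, indicates HEK 293 viability. Cells plated at 250 cells/well are treated with compound for 48 or 72 hr at 37 degree Celsius before reagent addition.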
# % is set by controls: 0 for no effect and ±100 for the full control effect; potency is the fitted concentration of half-maximal effect; tags give direction and shape of the fitted curve.
Structure (SMILES),Potency,"activity change, negative = cytotoxicity",outcome
COc1ccc(NC(=O)C2(C)CCCc3cnc(NCc4ccccc4)nc32)cn1 (stereo not drawn),"inconclusive: 112 µM [inhibitor, partial curve, poor fit]",,
CC(C)(C)C(=O)N1CCC(C(=O)N2CCCC(c3nc4ncccc4[nH]3)C2)CC1 (stereo not drawn),"inconclusive: 28.2 µM [inhibitor, full curve]",,
COc1ccccc1CN1CC(c2noc(-c3ccc(C)cc3C)n2)CC1=O (stereo not drawn),active: 39.8 µM,,
CC1CCN(Cc2nnnn2CC(=O)N(Cc2ccncc2)CC2CCCO2)CC1 (stereo not drawn),,inactive: 0.269%,
CCc1noc(-c2cn(C3CCN(C(=O)c4ccc(C)c(C)c4)CC3)nn2)n1,"inconclusive: 25.1 µM [inhibitor, partial curve, poor fit]",,
COc1cccc(-c2cc(-c3c(C)noc3C)cc3c2C(=O)N(C)C3=O)c1OC,"inconclusive: 100 µM [inhibitor, partial curve, poor fit]",,
CCC(=O)N1Cc2ccccc2CC2(CCN(Cc3ccc(OC)cc3)C2)C1 (stereo not drawn),"inconclusive: 79.4 µM [inhibitor, partial curve, poor fit]",,
O=C(NCc1ccccc1)c1cnc2n1CCN(Cc1ccccc1)CC2,"inconclusive: 5.62 µM [inhibitor, full curve]",,
Cc1cccc(C(=O)N[C@@H]2CN(Cc3cccnc3)C[C@H]2CN(C)C)c1,"inconclusive: 56.2 µM [inhibitor, partial curve, poor fit]",,
COc1ccc(OC)c(NC(=O)N2c3ccccc3CC2c2nc(C3CC3)no2)c1 (stereo not drawn),"inconclusive: 15.8 µM [inhibitor, full curve]",,
c1ccc(-c2noc(-c3ccn4c(CN5CCN(c6ccccc6)CC5)nnc4c3)n2)cc1,,inactive: -5.1%,
Cc1cc(C)n(CCC(=O)N[C@@H]2CN(S(C)(=O)=O)C[C@H]2CN(C)C)n1,,inactive: -9.17%,
CC1=C[C@@H](CNS(=O)(=O)c2ccccc2)[C@H](C(C)C)C[C@H]1CC(=O)NCCN(C)C,"inconclusive: 79.4 µM [inhibitor, partial curve]",,
O=C(Cc1ccc(F)cc1)NC1CCN(c2nccc(Nc3ccccc3Cl)n2)CC1,"inconclusive: 39.8 µM [inhibitor, partial curve, poor fit]",,
Cc1nn(-c2ccccc2)c2c1C(C(C)C)N(C1CN([S+](=O)([O-])c3cccc(C(F)(F)F)c3)C1)C2=O (stereo not drawn),,inactive: 3.41%,
CN(C)CCCn1ccnc1C1CCCN(C(=O)N(C)c2ccccc2)C1 (stereo not drawn),,inactive: 3.21%,
COc1cc(OC)cc(-c2nc(C3CC(=O)N(c4ccc(Cl)cc4)C3)no2)c1 (stereo not drawn),"inconclusive: 50.1 µM [inhibitor, partial curve, poor fit]",,
COc1ccc(CC(=O)N2CCCC3(Cc4ccccc4CN3C(=O)C3CCCC3)C2)cc1 (stereo not drawn),"inconclusive: 50.1 µM [inhibitor, partial curve, poor fit]",,
Cc1cc(-c2ccnc(-c3nnc(C)n3CCc3ccccc3)c2)ccn1,"inconclusive: 100 µM [inhibitor, partial curve]",,
COc1cccc(-c2ccc(CN3CCCC(NC(=O)N(C)C)C3)cc2)c1 (stereo not drawn),"inconclusive: 50.1 µM [inhibitor, partial curve, poor fit]",,
Cc1cnc(CC2CCCN(S(=O)(=O)c3ccc4c(c3)OCCO4)C2)n1C(C)C (stereo not drawn),"inconclusive: 100 µM [inhibitor, single point]",,

Structure (SMILES),Potency,"activity change, negative = cytotoxicity",outcome
Cc1nc(-c2ccc(C(C)N3CCCCC3)cc2)c(C#N)cc1C(=O)O (stereo not drawn),"inconclusive: 44.7 µM [inhibitor, partial curve, poor fit]",,
Cc1cccc(Cl)c1NC(=O)N1CCC2(CC1)C(C(=O)O)CC(=O)N2C (stereo not drawn),,inactive: -4.17%,
COCC1CN(C)CC12CCN(S(=O)(=O)c1cccc(OC)c1)CC2 (stereo not drawn),"inconclusive: 10 µM [inhibitor, full curve, poor fit]",,
CC(=O)N1CCC(NC2(Cc3cc(C(C)(C)O)on3)COC2)CC1,,,inactive [at 172 µM]
CC(C)(C)OCC1CN(Cc2cccs2)S(=O)(=O)c2cnccc2O1 (stereo not drawn),"inconclusive: 39.8 µM [inhibitor, single point]",,
FC(F)(F)c1cccc(C2=NOC3(CCCN(Cc4cccnc4)C3)C2)c1 (stereo not drawn),"inconclusive: 31.6 µM [inhibitor, partial curve, poor fit]",,
N#Cc1cccc(C2CCN(C(=O)C3CCN(C(=O)C4CC4)CC3)CC2)c1,"inconclusive: 89.1 µM [inhibitor, single point]",,
O=C(NCc1csc(Cc2ccccc2)n1)C1NCCc2[nH]cnc21 (stereo not drawn),"inconclusive: 8.91 µM [inhibitor, full curve, poor fit]",,
COc1ccc(Cc2nc3nccc(-c4ccccc4)n3n2)cc1,"inconclusive: 100 µM [inhibitor, single point]",,
COc1cccc(NC(=O)CCC[C@H]2NC[C@@H]3C[C@H]2CN(Cc2ccccc2)C3)c1,"inconclusive: 89.1 µM [inhibitor, single point]",,
COCCC(=O)N1CCC(Oc2nccnc2N2CCc3ccccc32)C1 (stereo not drawn),"inconclusive: 100 µM [inhibitor, single point]",,
O=C1Nc2ccccc2CC12CCN(Cc1cccc3ccccc13)CC2,"inconclusive: 56.2 µM [inhibitor, partial curve, poor fit]",,
O=C(CC(F)(F)F)N1CCC(N2C(=O)C3(CCCC3)C2c2ccccc2)CC1 (stereo not drawn),,inactive: -9.17%,
CCC1(C(=O)Nc2ccc(C)cc2)CCCCC(=O)N1 (stereo not drawn),,inactive: 0.0593%,
CCc1ccccc1NC(=O)Nc1cccc(-c2ccc(N3CCOCC3)nn2)c1,"inconclusive: 89.1 µM [inhibitor, single point]",,
COc1ccc(-n2nc(C3CCN(Cc4cccc5ccccc45)CC3)[nH]c2=O)cc1,"inconclusive: 50.1 µM [inhibitor, partial curve, poor fit]",,
C[C@]1(CO)[C@H]2Cc3sc(NC(=O)c4ccc(F)cc4)nc3[C@@H](CC(=O)NC3CCCC3)[C@]2(C)CC[C@H]1O,"inconclusive: 44.7 µM [inhibitor, partial curve]",,
CC(C)C[C@@H]1N[C@H](C(=O)NCc2cccs2)Cc2cn(CC3CC3)c3cccc1c23,active: 63.1 µM,,
CC1CCCN(C(=O)C2CCN(C(=O)c3ccc(-c4cncnc4)cc3)CC2)C1 (stereo not drawn),,inactive: -18.3%,
C#CCNC(=O)C1CCCN(Cc2cccc(-c3cccs3)c2)C1 (stereo not drawn),"inconclusive: 89.1 µM [inhibitor, single point]",,
COc1ccc(CC(=O)N2CCC3(CC2)CC(O)CCO3)cc1OC (stereo not drawn),,inactive: -5.09%,

Structure (SMILES),Potency,"activity change, negative = cytotoxicity",outcome
Cn1nccc1C(=O)NCC(=O)N1CCCCCNC(=O)CC1c1ccccc1 (stereo not drawn),,inactive: -7.37%,
CCCCc1nc2cc(C(=O)N3CCCC3c3cc(C(C)C)on3)ccc2o1 (stereo not drawn),"inconclusive: 50.1 µM [inhibitor, partial curve, poor fit]",,
O=C(CCc1ncc(-c2ccccc2)o1)Nc1ccc2c(c1)C(=O)N1CCC[C@H]1C(=O)N2,"inconclusive: 89.1 µM [inhibitor, single point]",,
O=C1C(OCC2CC2)C2(CCCCC2)N1C1CCN(Cc2ccncc2F)CC1 (stereo not drawn),"inconclusive: 89.1 µM [inhibitor, partial curve, poor fit]",,
C[C@H]1CCCN1C(=O)c1nnc(CNCCCn2ccnc2)n1-c1ccccc1,,,inactive [at 172 µM]
Cc1ccc(-c2cc(C(=O)N3CCC(c4nc(CCOCC5CC5)no4)C3)[nH]n2)cc1 (stereo not drawn),"inconclusive: 28.2 µM [inhibitor, full curve, poor fit]",,
O=C(C1CCN(c2nccc(Nc3ccccc3Cl)n2)CC1)N1CCC(c2ccccc2)CC1,active: 31.6 µM,,
Cc1ccc(C)c(S(=O)(=O)N2CCC(n3cnnc3C(C)C)CC2)c1,"inconclusive: 89.1 µM [inhibitor, single point]",,
CCOc1ccccc1C(=O)NC1CCN(c2cc(-c3cccs3)[nH]n2)C1 (stereo not drawn),"inconclusive: 50.1 µM [inhibitor, partial curve, poor fit]",,
NCc1cccc(-c2cc(F)cc(F)c2)c1,"inconclusive: 112 µM [inhibitor, partial curve, poor fit]",,
CN(C)C[C@@H]1CN(Cc2ccccc2)C[C@H]1NC(=O)NCc1ccco1,,,inactive
O=C(c1cccc(Br)c1)N1CCN(c2cc(-c3cccs3)[nH]n2)CC1,"inconclusive: 35.5 µM [inhibitor, partial curve, poor fit]",,
Cc1ccc(OCc2nc(C3CCN(C(=O)c4noc(C)c4CN4CCCCC4)CC3)no2)cc1,active: 31.6 µM,,
O=C([C@@H]1C[C@H](c2ccc(F)cc2)N([S+](=O)([O-])C2CC2)C1)N1CCN(c2ccccn2)CC1,"inconclusive: 70.8 µM [inhibitor, partial curve, poor fit]",,
CC(C)N1C(=O)C2(CCCC2)C1C(=O)N1CCN(C2CCCCC2)CC1 (stereo not drawn),,inactive: -17.4%,
CC(C)N1C[C@@H](COC(C)(C)C)[C@H](c2ccccc2)[S+]1(=O)[O-],"inconclusive: 89.1 µM [inhibitor, single point]",,
CCCC(=O)N1Cc2ccccc2CC2(CCCN(Cc3ccccc3)C2)C1 (stereo not drawn),"inconclusive: 63.1 µM [inhibitor, partial curve, poor fit]",,
Cc1ccc(CN2CCOCCNC(=O)[C@H]3CCCC[C@H]32)s1,"inconclusive: 50.1 µM [inhibitor, partial curve, poor fit]",,
O=C(NC1C[C@H]2CC[C@@H](C1)N2C(=O)CCCc1ccccc1)c1ccc(F)cc1 (stereo partly drawn),"inconclusive: 12.6 µM [inhibitor, full curve]",,
COc1cccc(NC(=O)C2CCN(c3cn[nH]c(=O)c3)C2)c1 (stereo not drawn),,,inactive
Cc1nc(-c2ccc(F)cc2)n(CC(=O)Nc2ccc(C(C)C)cc2)c(=O)c1CCO,"inconclusive: 31.6 µM [inhibitor, full curve, poor fit]",,
